Test results: publication PMC3967168
Results are given in words; binding and its absence hold for the method and conditions named. In cells and extracts the contact can be indirect. Some results given as binding are weak or reduced against the parent protein; the word gives no strength. Sequences can lack the tags named with a protein.

T1: Flag-tagged pUL97 (full-length) (human cytomegalovirus (HCMV)), P16788
T1 chain: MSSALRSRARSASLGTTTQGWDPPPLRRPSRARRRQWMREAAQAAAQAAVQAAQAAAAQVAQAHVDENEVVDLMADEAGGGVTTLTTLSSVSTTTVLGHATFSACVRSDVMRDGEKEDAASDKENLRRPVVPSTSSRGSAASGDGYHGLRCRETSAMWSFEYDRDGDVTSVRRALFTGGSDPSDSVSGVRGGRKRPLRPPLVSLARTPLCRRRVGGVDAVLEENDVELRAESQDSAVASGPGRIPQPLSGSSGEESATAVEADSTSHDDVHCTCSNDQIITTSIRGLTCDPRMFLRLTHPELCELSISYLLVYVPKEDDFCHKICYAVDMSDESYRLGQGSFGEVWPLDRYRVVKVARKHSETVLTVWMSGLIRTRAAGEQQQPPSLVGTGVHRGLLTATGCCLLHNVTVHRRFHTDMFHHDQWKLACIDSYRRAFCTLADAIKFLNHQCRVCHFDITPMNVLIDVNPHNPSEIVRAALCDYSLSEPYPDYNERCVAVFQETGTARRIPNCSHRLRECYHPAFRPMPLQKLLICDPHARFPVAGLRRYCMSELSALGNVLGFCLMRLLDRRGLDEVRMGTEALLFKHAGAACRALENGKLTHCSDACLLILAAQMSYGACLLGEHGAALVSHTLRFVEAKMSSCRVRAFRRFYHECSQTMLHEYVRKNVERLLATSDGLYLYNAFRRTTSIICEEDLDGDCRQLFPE


Columns and labels:
[1] = molecular target: cyclin B1 (293T cells) (human (endogenous in 293T)), P14635; assay: co-IP; details: remark: other sources report otherwise
[2] = molecular target: T1, Flag-tagged pUL97 (full-length) (human …); assay: co-IP; details: remark: other sources report otherwise

| Binder | binding [1] | binding [2] |
| --- | --- | --- |
| Flag-tagged pUL97 (full-length), P16788 1-707 (enzyme) MSSALRSRARSASLGTTTQGWDPPPLRRPSRARRRQWMREAAQAAAQAAVQAAQAAAAQVAQAHVDENEVVDLMADEAGGGVTTLTTLSSVSTTTVLGHATFSACVRSDVMRDGEKEDAASDKENLRRPVVPSTSSRGSAASGDGYHGLRCRETSAMWSFEYDRDGDVTSVRRALFTGGSDPSDSVSGVRGGRKRPLRPPLVSLARTPLCRRRVGGVDAVLEENDVELRAESQDSAVASGPGRIPQPLSGSSGEESATAVEADSTSHDDVHCTCSNDQIITTSIRGLTCDPRMFLRLTHPELCELSISYLLVYVPKEDDFCHKICYAVDMSDESYRLGQGSFGEVWPLDRYRVVKVARKHSETVLTVWMSGLIRTRAAGEQQQPPSLVGTGVHRGLLTATGCCLLHNVTVHRRFHTDMFHHDQWKLACIDSYRRAFCTLADAIKFLNHQCRVCHFDITPMNVLIDVNPHNPSEIVRAALCDYSLSEPYPDYNERCVAVFQETGTARRIPNCSHRLRECYHPAFRPMPLQKLLICDPHARFPVAGLRRYCMSELSALGNVLGFCLMRLLDRRGLDEVRMGTEALLFKHAGAACRALENGKLTHCSDACLLILAAQMSYGACLLGEHGAALVSHTLRFVEAKMSSCRVRAFRRFYHECSQTMLHEYVRKNVERLLATSDGLYLYNAFRRTTSIICEEDLDGDCRQLFPE | binds |  |
| cyclin H (293T cells), P51946 1-323 (protein) MYHNSSQKRHWTFSSEEQLARLRADANRKFRCKAVANGKVLPNDPVFLEPHEEMTLCKYYEKRLLEFCSVFKPAMPRSVVGTACMYFKRFYLNNSVMEYHPRIIMLTCAFLACKVDEFNVSSPQFVGNLRESPLGQEKALEQILEYELLLIQQLNFHLIVHNPYRPFEGFLIDLKTRYPILENPEILRKTADDFLNRIALTDAYLLYTPSQIALTAILSSASRAGITMESYLSESLMLKENRTCLSQLLDIMKSMRNLVKKYEPPRSEEVAVLKQKLERCHSAELALNVITKKRKGYEDDDYVSKKSKHEEEEWTDDDLVESL |  | no binding |
